According to PMC7819943, “Rice protein-binding microarrays: a tool to detect cis-acting elements near promoter regions in rice”:
Some of the results follow.

Biological target: T1, OsWOX13 (Oryza sativa, UniProt Q5QMM3 1-267)
T1 sequence: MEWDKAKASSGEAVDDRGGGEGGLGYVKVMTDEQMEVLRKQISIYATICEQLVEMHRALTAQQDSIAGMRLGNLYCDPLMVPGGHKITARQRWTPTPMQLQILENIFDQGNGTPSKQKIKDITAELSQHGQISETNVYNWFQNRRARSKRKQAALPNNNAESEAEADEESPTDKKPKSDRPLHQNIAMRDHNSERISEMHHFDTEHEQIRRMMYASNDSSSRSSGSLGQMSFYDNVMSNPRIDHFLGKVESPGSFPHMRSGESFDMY
Assay: protein-binding microarray (RPBM); PBS, 2% BSA, 51.3 ng/ul salmon testes DNA, 50 uM zinc acetate, 200 nM TF, 25 C, 1 h; high values mean tight binding
Conditions: protein: recombinant; tags: N-terminal polyhistidine and DsRed monomer fusion (pET32a); label: CyDye5-dUTP incorporated in the synthesized complementary strand; 3' TTTTT single-stranded linker to array surface; dsDNA, one strand shown
How it was run: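 Transcription factors, each fused N-terminally to a polyhistidine tag and DsRed, were expressed in E. coli BL21-CodonPlus and purified on Ni–NTA. A custom Agilent array was made double-stranded by primer extension with Cy5-dUTP and blocked with 2% BSA. It was incubated with 200 nM protein in PBS, 2% BSA, salmon testes DNA and 50 µM zinc acetate at 25 °C for 1 h, then washed. The binding signal is per-feature fluorescence intensity (arbitrary units) read on an Axon 4000B scanner.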

Sequence | binding signal
TAAAATTACCGGCCCGGATGAAACAGTCACGCCTAACTACCGGAGTCACCTAGTGCAG | 3880 fluorescence intensity (a.u.)
TTATTTATAAAACTAATTACATAAATGAGAGCTAATCTGCCGGAGTCACCTAGTGCAG | 3810 fluorescence intensity (a.u.)
GAATTAATTAGTACTTGAATACTTGATCTCTAGATATATGCGGAGTCACCTAGTGCAG | 20500 fluorescence intensity (a.u.)
GCCAAGTTTAATCATGCATTGTAATTATACTAGAGGGAGTCGGAGTCACCTAGTGCAG | 11500 fluorescence intensity (a.u.)
TTTGACAGGCCATCAGGTTAACAGCATAATACTTGTGATTCGGAGTCACCTAGTGCAG | 27200 fluorescence intensity (a.u.)
TGAAAATTAATTATAAATATTAAACGTAGACTATTAATAACGGAGTCACCTAGTGCAG | 11800 fluorescence intensity (a.u.)
CCAAATTAGACCTTATGTAAGCTTTTGTTAGCAACTGCAACGGAGTCACCTAGTGCAG | 10300 fluorescence intensity (a.u.)
GTCTTAATTGTGATCTTGTATTATTGTTAGTTTGGCGCCCCGGAGTCACCTAGTGCAG | 29800 fluorescence intensity (a.u.)
CCATTAAAGATGTTATGATTAATCATCATTACAAATTCAACGGAGTCACCTAGTGCAG | 5620 fluorescence intensity (a.u.)
CCATGTGAATGACTGATCAGCCAGCACAGTAGTTAGCATACGGAGTCACCTAGTGCAG | 4300 fluorescence intensity (a.u.)
ACAAATTGGAATGATCAAATTGAGTTAAACTAAGGAGATACGGAGTCACCTAGTGCAG | 39700 fluorescence intensity (a.u.)
AAAACTCAATCAATCATACGTTAATACCATCTCATTTTACCGGAGTCACCTAGTGCAG | 24500 fluorescence intensity (a.u.)
GAGCATCCAAATCAATCAATTATTGGACCATTATTGGGCTCGGAGTCACCTAGTGCAG | 26400 fluorescence intensity (a.u.)
GAAAAGATTGAAGGGATCAAGGGAGTACAACAAAACACTTCGGAGTCACCTAGTGCAG | 3900 fluorescence intensity (a.u.)
AGCTGATTGCAACAACAAAGCTCCATATCATAGAACTAAACGGAGTCACCTAGTGCAG | 26700 fluorescence intensity (a.u.)
AATCAACTATAATTAGTTGGCTATATTATTAAACTTGATCCGGAGTCACCTAGTGCAG | 4900 fluorescence intensity (a.u.)
GATTTCATAACTCCTAATTAATCAGTAGAATTACTAATCACGGAGTCACCTAGTGCAG | 6940 fluorescence intensity (a.u.)
TCAGTATATTGATTGTTAGTCTTTTATCGTCTTGAATGAACGGAGTCACCTAGTGCAG | 31300 fluorescence intensity (a.u.)
CATAACAGGCTTTAACTTTAAACATGCCATCCCTAACTTTCGGAGTCACCTAGTGCAG | 6270 fluorescence intensity (a.u.)
ATAATAAACAGTAATATAAGAAATATCACTCCACGAATATCGGAGTCACCTAGTGCAG | 3430 fluorescence intensity (a.u.)
AGATATCCAATCAAGGCTTTCATCGCTAGTCATCTATATCCGGAGTCACCTAGTGCAG | 9590 fluorescence intensity (a.u.)

Sequence | binding signal
CGACAAATTTACAAGTCAGTTGCTGCCACTGTTTTCTATACGGAGTCACCTAGTGCAG | 5560 fluorescence intensity (a.u.)
CTTAACTCTGGAGTTATTTGGAGATTGGCTTCCGGAAAAGCGGAGTCACCTAGTGCAG | 3150 fluorescence intensity (a.u.)
AATCTTGGCAAATTTCCTTAATTTGAACCTACGTGTTAAACGGAGTCACCTAGTGCAG | 5550 fluorescence intensity (a.u.)
TACTTCATCCTCATTATTCAATTTAAACGGTCATTTGCTCCGGAGTCACCTAGTGCAG | 3410 fluorescence intensity (a.u.)
TAAGTTAATAGATATTTAACGTTTATAATAAGATTTGTTTCGGAGTCACCTAGTGCAG | 9590 fluorescence intensity (a.u.)
GATATGTGATAGAAATCATTTGATACCTTGCAAGTATCGCCGGAGTCACCTAGTGCAG | 18700 fluorescence intensity (a.u.)
TGAAGGATGGGGAGTTGATTGCGGGAGGGATGAGTGTGGACGGAGTCACCTAGTGCAG | 7930 fluorescence intensity (a.u.)
ACTTAGATTTATCAGCTAACTTGCTACCAAAAGTTTTGCGCGGAGTCACCTAGTGCAG | 9030 fluorescence intensity (a.u.)
AAACTATTAGATTGGCTATAAATGAATTGGAGCCAATAGTCGGAGTCACCTAGTGCAG | 27000 fluorescence intensity (a.u.)
ATGATGGATAAGTGGGTGGGCCAAACAGGTGCTCACGTGGCGGAGTCACCTAGTGCAG | 3680 fluorescence intensity (a.u.)
TTAATCACTGGTAATTATAGATTTATAGGTGATTAATCACCGGAGTCACCTAGTGCAG | 17900 fluorescence intensity (a.u.)
TCATATGATTTATAATTCTTACGACTAACTTGAATCAATTCGGAGTCACCTAGTGCAG | 10700 fluorescence intensity (a.u.)
CAAAACTGACTTGATCAGTTCAAAATGAAAGTGGAGCGATCGGAGTCACCTAGTGCAG | 5390 fluorescence intensity (a.u.)
TTGTTTTGTATTAGTAGTTAATTACCGCGCTCTCTAATACCGGAGTCACCTAGTGCAG | 5100 fluorescence intensity (a.u.)
GCTTATCATGATGATTGATGATATCGGAGTAGAATTTATCCGGAGTCACCTAGTGCAG | 24600 fluorescence intensity (a.u.)
AAATAACTGGTGGATATTTGTACGCTGCCCCTGAGGAACTCGGAGTCACCTAGTGCAG | 3900 fluorescence intensity (a.u.)
TTTCGCAATTAAATCTGGTACTAATAGGTTTCGCCTTCCACGGAGTCACCTAGTGCAG | 5660 fluorescence intensity (a.u.)
ATATAGACGTAATTTAAGACGGTAAAATCCCGCTTATATACGGAGTCACCTAGTGCAG | 5030 fluorescence intensity (a.u.)
TTCCAAATTAGTCATTTATCAACAAATATATCCTAACACACGGAGTCACCTAGTGCAG | 11300 fluorescence intensity (a.u.)
ATCCTAATGACGATTAAAAGGAGAGACGTCAGGGAGGCCGCGGAGTCACCTAGTGCAG | 3650 fluorescence intensity (a.u.)
TGAGATTGTAATTGAAGTCGTCGTCGTGTCGTCCTCCGGCCGGAGTCACCTAGTGCAG | 4720 fluorescence intensity (a.u.)
